Hit rate of the full screen: of about 310,000 compounds, about 14,000 (4.5%) showed an effect of 50% or more. The effect is printed as a negative number. This is one part of the list.
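Also: peak tail current of the secondary pulse compared with the same well before compound.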

human ether-à-go-go-related gene (hERG) potassium channel, sequence (Q12809 whole entry, looked up): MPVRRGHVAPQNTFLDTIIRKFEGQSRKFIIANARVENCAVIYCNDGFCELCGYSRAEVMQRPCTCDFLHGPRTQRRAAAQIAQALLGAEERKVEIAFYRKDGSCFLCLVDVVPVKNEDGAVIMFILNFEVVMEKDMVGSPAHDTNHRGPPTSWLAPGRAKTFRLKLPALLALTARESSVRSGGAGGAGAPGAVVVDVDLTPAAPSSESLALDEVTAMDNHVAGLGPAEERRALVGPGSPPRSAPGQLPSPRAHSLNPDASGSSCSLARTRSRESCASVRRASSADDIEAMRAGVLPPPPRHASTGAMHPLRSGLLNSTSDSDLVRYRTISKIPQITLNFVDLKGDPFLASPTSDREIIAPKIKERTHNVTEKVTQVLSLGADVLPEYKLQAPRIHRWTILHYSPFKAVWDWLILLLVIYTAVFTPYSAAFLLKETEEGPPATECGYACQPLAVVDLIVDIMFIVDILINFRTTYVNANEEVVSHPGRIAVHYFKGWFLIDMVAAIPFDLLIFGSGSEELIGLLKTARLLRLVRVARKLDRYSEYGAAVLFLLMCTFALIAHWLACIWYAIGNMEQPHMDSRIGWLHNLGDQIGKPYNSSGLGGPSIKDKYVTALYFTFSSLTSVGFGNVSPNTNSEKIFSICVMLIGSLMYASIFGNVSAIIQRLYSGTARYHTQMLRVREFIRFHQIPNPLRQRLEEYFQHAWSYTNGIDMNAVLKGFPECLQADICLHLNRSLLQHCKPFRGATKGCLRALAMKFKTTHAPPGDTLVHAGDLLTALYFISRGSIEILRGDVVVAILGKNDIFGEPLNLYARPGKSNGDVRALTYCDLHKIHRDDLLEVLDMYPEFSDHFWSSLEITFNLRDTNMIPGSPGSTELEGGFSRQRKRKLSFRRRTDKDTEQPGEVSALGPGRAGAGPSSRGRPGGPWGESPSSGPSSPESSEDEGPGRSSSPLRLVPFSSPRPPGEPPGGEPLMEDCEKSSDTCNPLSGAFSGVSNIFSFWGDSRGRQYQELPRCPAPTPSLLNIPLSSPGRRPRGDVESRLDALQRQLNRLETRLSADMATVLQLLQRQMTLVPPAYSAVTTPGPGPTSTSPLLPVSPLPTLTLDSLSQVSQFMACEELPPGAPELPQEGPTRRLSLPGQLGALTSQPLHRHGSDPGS

The test addresses human ether-à-go-go-related gene (hERG) potassium channel (human, UniProt Q12809). The test is described as follows: primary screen, population patch clamp on CHO cells stably expressing hERG.
Take `CCOc1ccc(CCNC(=O)CCn2cccc2)cc1OCC`: the “hERG current change (%, negative = inhibition) at 10uM” value was 9.34%.

With `Cc1ccccc1C(=O)/C=C1/c2ccccc2CC(C)(C)N1C`, the “hERG current change (%, negative = inhibition) at 10uM” value was -30%.

Turning to `COc1ccc(N2C(=O)NC3CC2(C)Oc2ccccc23)cc1OC` (stereo not shown), the “hERG current change (%, negative = inhibition) at 10uM” value is -8.91%.

In the case of `Cn1c(=O)cc(OCCCC(=O)NCCC2=CCCCC2)c2ccccc21`, the “hERG current change (%, negative = inhibition) at 10uM” value is -9.04%.

As to `O=C(COc1ccccc1C(=O)c1cnn(-c2ccccc2)c1)Nc1ccccc1`, the “hERG current change (%, negative = inhibition) at 10uM” value is 11.4%.

As to `O=C(CN1C(=O)NC2(CCOc3ccccc32)C1=O)c1ccc[nH]1` (stereo not shown), the “hERG current change (%, negative = inhibition) at 10uM” value was -3.83%.

In the case of `O=C(CCCOC(=O)c1ccc(O)cc1O)c1ccc(F)cc1`, the “hERG current change (%, negative = inhibition) at 10uM” value is listed as -11.6%.

Regarding `CCn1c(P(C)(=O)[O-])nc2ccccc21.[Na+]`, the “hERG current change (%, negative = inhibition) at 10uM” value is listed as 8.91%.

Turning to `COc1cccc(/C=C/C(=O)OCC(=O)Nc2ccc(S(=O)(=O)N3CCCC3)cc2)c1`, the “hERG current change (%, negative = inhibition) at 10uM” value is given as 5.99%.

On to `CC(C)(C)c1nnc2cccc(Cl)n12`, for which the “hERG current change (%, negative = inhibition) at 10uM” value is reported as 1.56%.

Turning to `CC(NS(=O)(=O)OCC(Cl)(Cl)Cl)c1ccc(C(C)(C)C)cc1` (stereo not shown), the “hERG current change (%, negative = inhibition) at 10uM” value was 8.59%.

As to `COc1ccc(NC(=O)CN(C)S(=O)(=O)c2cnc[nH]2)cc1OC`, the “hERG current change (%, negative = inhibition) at 10uM” value amounted to 18.7%.

For `CC(=O)c1ccc(NC(=O)C(C)OC(=O)C2CCN(c3ccc(C(F)(F)F)cn3)CC2)cc1` (stereo not shown), the “hERG current change (%, negative = inhibition) at 10uM” value is on record as -10.6%.

In the case of `COc1cc(/C=N/NC(=O)C(=O)NCc2ccco2)ccc1O`, the “hERG current change (%, negative = inhibition) at 10uM” value is -0.759%.

As to `COc1ccc2nc(SCC(=O)Nc3c(C)cc(C)cc3C)[nH]c2c1`, the “hERG current change (%, negative = inhibition) at 10uM” value worked out at 14.5%.

With `Cn1c(SCC(=O)NC2CC2)nnc1C(F)(F)F`, the “hERG current change (%, negative = inhibition) at 10uM” value was -1.32%.

On to `CCn1c(C)nc2c1C(=O)c1ccccc1C2=O`, for which the “hERG current change (%, negative = inhibition) at 10uM” value is given as -5.13%.

`O=S(=O)(CCc1ccncc1)Cc1ccc2c3c(cccc13)CC2`: the “hERG current change (%, negative = inhibition) at 10uM” value was 1.07%.

For the molecule `Cc1ccc(NC(=O)C(Nc2cccc(C)c2)c2ccccc2)cc1` (stereo not shown), the “hERG current change (%, negative = inhibition) at 10uM” value is on record as -8.24%.

For the molecule `CC(C)CC1CCCCC1OC(=O)CN1CCCCC1` (stereo not shown), the “hERG current change (%, negative = inhibition) at 10uM” value is 4.84%.

Regarding `Cc1cccc(C(=O)NNC(=O)c2n[nH]c(=O)c3ccccc23)c1C`, the “hERG current change (%, negative = inhibition) at 10uM” value is given as -14.2%.

Turning to `CC(C)Cc1nnc(NC(=O)CN2C(=O)NC3(CCCC3)C2=O)s1`, the “hERG current change (%, negative = inhibition) at 10uM” value is -9.22%.

As to `COc1ccc(S(=O)(=O)N2CCC(C(=O)NCc3cccs3)CC2)cc1`, the “hERG current change (%, negative = inhibition) at 10uM” value was 9.4%.

For `Nc1ccc(/C=C/C(=O)c2cccs2)cc1`, the “hERG current change (%, negative = inhibition) at 10uM” value was -0.114%.

`COc1ccc2oc(C(=O)OCC(=O)N(C)Cc3ccccc3)c(C)c2c1`: the “hERG current change (%, negative = inhibition) at 10uM” value was -13.1%.

Consider `CC1CCC/C(=N\NC(=S)Nc2ccccc2)C1` (stereo not shown), for which the “hERG current change (%, negative = inhibition) at 10uM” value was 7.36%.

`CCc1ccc(NC(=O)C(=O)NCC(O)c2ccccc2)cc1` (stereo not shown): the “hERG current change (%, negative = inhibition) at 10uM” value was 8.25%.

Regarding `CCSc1nnc(NC(=O)CSc2c(Cl)cccc2Cl)s1`, the “hERG current change (%, negative = inhibition) at 10uM” value is given as 0.819%.

Regarding `COCCn1c(Sc2ccc(C)cc2)nc2c1c(=O)[nH]c(=O)n2C`, the “hERG current change (%, negative = inhibition) at 10uM” value was -0.808%.

Regarding `COc1ccccc1CN1CCN(Cc2nc(-c3ccccc3)no2)CC1`, the “hERG current change (%, negative = inhibition) at 10uM” value is reported as -23.6%.

Turning to `CCOC(=O)/C(C#N)=C/c1ccc(N2CCN(C)CC2)cc1`, the “hERG current change (%, negative = inhibition) at 10uM” value was -27.8%.

Regarding `C/C(=N\NC(=O)c1cccc([N+](=O)[O-])c1)c1ccco1`, the “hERG current change (%, negative = inhibition) at 10uM” value is -9.5%.

With `COC(=O)c1cc(S(=O)(=O)N2CCC(C)CC2)cn1C`, the “hERG current change (%, negative = inhibition) at 10uM” value stood at 13.1%.

As to `COc1cccc(CNC(=O)Cc2ccc(OC)c(S(=O)(=O)N3CCOCC3)c2)c1`, the “hERG current change (%, negative = inhibition) at 10uM” value stood at 8.32%.

With `CCOC(=O)C1(CCOc2ccccc2)CCN(Cc2ccc(O)c(Cl)c2)CC1`, the “hERG current change (%, negative = inhibition) at 10uM” value was -53%.

Regarding `COc1ccc(CNC(=O)c2ccc3oc(C(C)C)nc3c2)cc1`, the “hERG current change (%, negative = inhibition) at 10uM” value was -2.67%.

Turning to `CCn1cc(C(=O)NC2CC(C)(C)Cc3c2cnn3-c2cccc(F)c2)cn1` (stereo not shown), the “hERG current change (%, negative = inhibition) at 10uM” value was -23.4%.

Consider `COc1ccc(CCNC(=O)C2CCN(Cc3nc(-c4cccc(Cl)c4)oc3C)CC2)cc1OC`, for which the “hERG current change (%, negative = inhibition) at 10uM” value is on record as -85.2%.

For the molecule `CCCN1CCN(C(=O)Cn2nc(CC)n3c(cc4sccc43)c2=O)CC1`, the “hERG current change (%, negative = inhibition) at 10uM” value is given as -16.4%.

With `CCSc1nnc(NC(=O)c2ccc(F)c(S(=O)(=O)N3CCOCC3)c2)s1`, the “hERG current change (%, negative = inhibition) at 10uM” value was determined as 3.58%.

Turning to `CC(=O)Nc1ccc2c(c1)nc(CCN1CCN(C)CC1)n2C`, the “hERG current change (%, negative = inhibition) at 10uM” value is given as -2.56%.

`CCOC(=O)N1CCN(C(=O)CNC(=O)Cc2ccc(Cl)cc2)CC1`: the “hERG current change (%, negative = inhibition) at 10uM” value is given as -11.3%.

In the case of `O=C(Nc1ccc(NC(=O)c2ccccc2O)cc1)Nc1ccc(F)cc1F`, the “hERG current change (%, negative = inhibition) at 10uM” value stood at 13.8%.

Regarding `COc1cc2c(c(OC)c1OC)-c1ccc(OC)c(=O)cc1[C@@H](NC(C)=O)CC2`, the “hERG current change (%, negative = inhibition) at 10uM” value is on record as 21.3%.

`CC(=O)c1cccc(NC(=O)CC2S/C(=N/N=C3CCCCCC3)NC2=O)c1` (stereo not shown): the “hERG current change (%, negative = inhibition) at 10uM” value is recorded as -2.12%.

As for `CC(=O)c1ccc(NC(=O)CSc2n[nH]c(-c3cccnc3)n2)cc1`, the “hERG current change (%, negative = inhibition) at 10uM” value amounted to 16.7%.

Values taken from article PMC4336329 (PLoS ONE, 2015).
